Hit rate of the full screen: of about 310,000 compounds, about 2,200 (0.71%) showed an effect of 50% or more. The effect is printed as a negative number. The list shows a part of the results.
The compounds below were run against human ether-à-go-go-related gene (hERG) potassium channel (human, UniProt Q12809) (assay: primary screen, population patch clamp on CHO cells stably expressing hERG).
Chain of human ether-à-go-go-related gene (hERG) potassium channel (Q12809 whole entry, looked up): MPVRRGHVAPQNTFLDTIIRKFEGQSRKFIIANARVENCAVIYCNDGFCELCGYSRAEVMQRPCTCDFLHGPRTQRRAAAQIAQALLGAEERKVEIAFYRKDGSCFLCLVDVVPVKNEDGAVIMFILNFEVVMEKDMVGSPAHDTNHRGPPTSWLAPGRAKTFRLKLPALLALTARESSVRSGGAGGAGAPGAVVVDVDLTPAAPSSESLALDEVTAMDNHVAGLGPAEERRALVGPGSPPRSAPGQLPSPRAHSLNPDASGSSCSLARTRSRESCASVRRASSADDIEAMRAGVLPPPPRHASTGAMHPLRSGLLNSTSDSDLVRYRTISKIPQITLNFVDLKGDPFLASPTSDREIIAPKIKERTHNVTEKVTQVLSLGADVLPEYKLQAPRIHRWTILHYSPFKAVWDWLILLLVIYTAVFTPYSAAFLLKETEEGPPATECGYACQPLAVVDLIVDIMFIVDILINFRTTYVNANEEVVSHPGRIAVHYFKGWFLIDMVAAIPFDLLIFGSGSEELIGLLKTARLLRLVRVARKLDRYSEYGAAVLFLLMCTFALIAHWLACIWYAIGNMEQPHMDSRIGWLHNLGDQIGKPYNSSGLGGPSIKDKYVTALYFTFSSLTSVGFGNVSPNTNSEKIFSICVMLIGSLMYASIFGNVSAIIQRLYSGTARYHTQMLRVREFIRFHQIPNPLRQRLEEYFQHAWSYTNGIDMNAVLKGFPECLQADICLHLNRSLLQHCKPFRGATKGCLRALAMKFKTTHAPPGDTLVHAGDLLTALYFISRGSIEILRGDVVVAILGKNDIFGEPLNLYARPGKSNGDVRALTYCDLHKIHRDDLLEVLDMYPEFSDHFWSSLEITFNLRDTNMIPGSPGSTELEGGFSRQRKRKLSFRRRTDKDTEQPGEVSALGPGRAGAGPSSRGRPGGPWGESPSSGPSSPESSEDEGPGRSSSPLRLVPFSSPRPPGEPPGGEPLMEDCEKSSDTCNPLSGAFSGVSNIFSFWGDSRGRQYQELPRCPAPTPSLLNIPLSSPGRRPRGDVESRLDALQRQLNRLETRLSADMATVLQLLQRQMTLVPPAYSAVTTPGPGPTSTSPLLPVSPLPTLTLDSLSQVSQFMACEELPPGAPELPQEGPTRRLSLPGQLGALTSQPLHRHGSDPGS

| SMILES | hERG current change (%, negative = inhibition) at 1uM |
| --- | --- |
| CC1CCN(S(=O)(=O)c2ccc(NC(=S)NC(=O)c3ccc(Cl)cc3)cc2)CC1 | -2.42% |
| COc1ccc(C2CC(c3ccc(OC)cc3)n3nc(NC(=O)c4cccs4)nc3N2)cc1 (stereo not shown) | -12.9% |
| COc1cc(C(C(=O)NCC2CCCO2)N(C(=O)Cn2nnc3ccccc32)c2ccc(C(C)=O)cc2)ccc1O (stereo not shown) | 16.4% |
| COc1ccc(-n2nc3c(N4CCC(C(=O)NCCc5ccco5)CC4)nnc(C)c3c2C)cc1 | 19.1% |
| CCn1c(Cc2ccccc2)nnc1SC(C)C(=O)NC1CC1 (stereo not shown) | 3.04% |
| COc1ccc(NC(=O)c2oc3cc(C)c(C)cc3c2C)c(OC)c1 | 11.9% |
| CC1(C(=O)N2CCOCC2)CCCCC1 | 13.3% |
| Oc1c(Br)cc(Br)cc1CNc1nccs1 | 12.6% |
| Cn1c(=O)c2sccc2n2c(CCCC(=O)NCc3ccco3)nnc12 | 13.2% |
| Cc1nc2ccc(S(=O)(=O)NCC(=O)NCc3ccc4c(c3)OCO4)cc2s1 | 0.628% |
| COc1ccc(S(=O)(=O)N2CCOCC2)cc1NC(=O)Cc1c(F)cccc1Cl | 8.34% |
| O=C(CCNC(=O)c1ccccc1Cl)N/N=C\c1ccc(O)cc1 | 3.24% |
| Cc1ccc(Oc2ccc(Cl)cc2NC(=O)c2ccc(F)cc2F)cc1 | 7.82% |
| Cc1ccc(NC(=O)/C=C/c2ccc([N+](=O)[O-])s2)c(C)c1 | 10.5% |
| CCCCOc1ccc(/C=C/C(=O)Nc2ccc(C(N)=O)cc2)cc1 | 9.03% |
| Brc1ccc(-c2csc(N/N=C/c3cccnc3)n2)cc1 | 6.66% |
| O=C(C1CCC(=O)N(C2CCCC2)C1)N1CCN(Cc2cccc(F)c2)CC1 (stereo not shown) | 5.7% |
| CC[C@@]1(O)C(=O)OCc2c1cc1n(c2=O)Cc2cc3c(NC(=O)CN)cccc3nc2-1.Cl | 16.7% |
| COc1c(C)cc(C(=O)C2CCCN(Cc3cnc(C)s3)C2)cc1C (stereo not shown) | 2.78% |
| COc1cccc(/C=N/c2oc(-c3ccccc3)cc2C#N)c1O | 10.1% |
| CCc1cc(C(=O)NN2C(=O)NC3(CCCCC3)C2=O)sc1C | 17.8% |
| Cc1cccc(C2c3[nH]c4ccccc4c3CCN2C(=O)c2nn(C)c(=O)c3ccccc23)n1 (stereo not shown) | 12.7% |

| SMILES | hERG current change (%, negative = inhibition) at 1uM |
| --- | --- |
| Cc1cc(/C(O)=C2\C(=O)C(=O)N(CCN(C)C)C2c2ccncc2)ccc1OCc1ccccc1 (stereo not shown) | 12.5% |
| Cc1nc2ccccc2c(=O)n1/N=C/c1cn(-c2ccccc2)nc1-c1cccs1 | 6.58% |
| CCN1CCN(C(C)CCc2ccccc2)CC1 (stereo not shown) | 5.81% |
| N#CCSc1ccccc1NC(=O)COC(=O)Cc1c[nH]c2ccccc12 | 12.9% |
| CC(C)(C)c1ccc(-c2n[nH]c(=S)n2C2CCCC2)cc1 | -0.949% |
| CC(C)CN(C(=O)CCC(=O)OCC(=O)c1ccc(F)c(F)c1)c1c(N)n(CC(C)C)c(=O)[nH]c1=O | 8.69% |
| O=C(c1nc2nc(-c3cccs3)cc(C(F)(F)F)n2n1)N1CCN(Cc2ccccc2)CC1 | -12.3% |
| CC(c1nccs1)N(C)C(=O)CCc1nnc(Cc2c[nH]c3ccccc23)o1 (stereo not shown) | 11.4% |
| CCn1nc(C)cc1C(=O)N1CCCC(C(=O)c2ccc(Oc3ccccc3)cc2)C1 (stereo not shown) | 14.7% |
| Cn1c(-c2ccc(F)cc2)cnc1SCC(=O)N1CCCCC1 | 14.6% |
| CNc1c(N)c(=O)oc2ccccc12 | 11.5% |
| Cc1cnn(C(=O)c2oc3ccccc3c2C)c1 | -5.76% |
| COc1ccc(C2N=C(c3ccccc3)C(C)(C)N2O)cc1OC (stereo not shown) | 12.4% |
| Nc1nc(N)c(N=Nc2ccc(SCC(=O)O)cc2)c(=O)[nH]1 | 11% |
| Cc1cc(OCCN2CCOCC2)ccc1C(C)C.Cl | 11.9% |
| CC1=NN(c2ccccc2)C(=O)/C1=C/c1cn(C)c2ccccc12 | 10.8% |
| CC(=O)c1c(C)[nH]c(C(=O)NNC(=O)COc2ccc(Cl)cc2C)c1C | -11.1% |
| CCCC(=O)N(c1ccc(OC)cc1)C1C=CS(=O)(=O)C1 (stereo not shown) | 0.819% |
| Cc1[nH]n(-c2ccccc2)c(=O)c1/C=N/NC(=O)c1ccc(O)cc1O | 13.6% |
| CCOC(=O)C1=C(CNCc2ccc(C)cc2)NC(=O)NC1c1cc(C)ccc1C (stereo not shown) | -15.9% |
| CCOC(=O)c1c(NC(=O)c2cccnc2Cl)sc(C(=O)N(C)C)c1C | 6.32% |
| CCN(Cc1ccccc1)S(=O)(=O)c1ccc(C(=O)Nc2nnc(C)o2)cc1 | -1.99% |

| SMILES | hERG current change (%, negative = inhibition) at 1uM |
| --- | --- |
| CCC(=O)N1N=C(c2ccc(NS(C)(=O)=O)cc2)CC1c1ccc(N(C)C)cc1 (stereo not shown) | -4.14% |
| Cc1cccc(-n2c3nc(=O)[nH]c(=O)c-3cc3c(C)nn(-c4ccccc4)c32)c1C | 13.8% |
| O[C@H]1C2CCC1C(N1CCCCC1)CC2 (stereo partly shown) | 8.63% |
| O=C(CCCOc1ccccc1)N1CCN(c2ccccc2)CC1 | -4.93% |
| Cc1nc(NNC(=O)c2ccccc2)cc(-c2ccccc2)n1 | 9.3% |
| Oc1c(Br)cc(Br)cc1CNc1cccc2cccnc12 | 12.7% |
| CCCn1nnnc1SCC(=O)NCc1ccc(OC)cc1 | 7.59% |
| COc1ccc(-c2noc(CCC(=O)Nc3cc(OC)ccc3OC)n2)cc1 | 1.82% |
| COc1ccc(/C=N/n2c(C)nnc2C)c(OC)c1 | -2.39% |
| CCCCNC(=O)OCCNC(=O)Oc1cccc(C)c1 | 7.33% |
| Cc1cc(-c2ccccc2C(=O)Nc2ccccc2O)on1 | 12.1% |
| CC1(C(=O)Nc2ccccc2)Cc2ccccc2C(=O)O1 (stereo not shown) | 9.44% |
| CCCCCCn1c(CN2CCCCC2)nc2c1c(=O)n(C)c(=O)n2C | -0.165% |
| COCCNC(=O)/C(C#N)=C/c1c(N2CCN(C)CC2)nc2ccccn2c1=O | 12.8% |
| Cc1nn(C)c(Oc2ccccc2)c1CCNC(=O)CCl | 23.5% |
| S=c1c2c(nc3nc[nH]n13)CCC2 | 9.35% |
| Oc1ccccc1CN1CCCN(Cc2ccccc2O)C1 | 11.4% |
| CCc1ccccc1NC(=O)/C(=C/c1ccccc1)c1ccccc1 | -4.2% |
| CC(=O)NCCn1c(SCc2cc(F)ccc2F)nc2ccccc2c1=O | -2.83% |
| c1ccn(-c2ccc(N3CCOCC3)cc2)c1 | 1.48% |
| CCc1ccc(S(=O)(=O)Nc2c(C)n(C)n(-c3ccccc3)c2=O)cc1 | 1.6% |
| COc1ccc(C(NC(=O)c2cccnc2)c2cc(Cl)c3cccnc3c2O)cc1OC (stereo not shown) | 6.51% |

| SMILES | hERG current change (%, negative = inhibition) at 1uM |
| --- | --- |
| CCOc1ccc(S(=O)(=O)NCCC(=O)NCCOc2ccccc2)cc1 | 3.45% |
| C/C=C\C=C\C(=O)N1CC2(CC(c3cccc(NC(=O)CC)c3)=NO2)C[C@H]1C(N)=O (stereo partly shown) | 10.1% |
| CCC(=O)Nc1cc(C(F)(F)F)ccc1N1CCCC1 | 8.59% |
| CCOc1ccc(C(=O)Nc2ccc(NC(=O)c3ccccc3)c(C)c2)cc1[N+](=O)[O-] | 14.1% |
| CCN(CC)CC(=O)Nc1ccc(-c2ccc(NC(=O)CN(CC)CC)c(OC)c2)cc1OC | 11.6% |
| Cl.OC(COCc1ccc(Cl)cc1)CN1CCN(c2ccccn2)CC1 (stereo not shown) | -24.9% |
| COc1ccccc1NC(=O)NC1(C(=O)N2CCCCCC2)CCCCC1 | 15.4% |
| O=C(CSc1ccccc1Cl)NC1CCCc2ccccc21 (stereo not shown) | 4.23% |
| O=C(CSc1nc(Nc2ccccc2)nc(N2CCOCC2)n1)Nc1ccc(Br)cc1F | 13.4% |
| CCC1CCCCN1C(=O)CCS(=O)(=O)c1ccc2c(c1)CCN2C(C)=O (stereo not shown) | 15.2% |
| O=[N+]([O-])c1ccc(-c2cn3ccccc3n2)cc1 | 9.49% |
| C=C1CCN([C@H](C(=O)NCc2ccc(Cl)c(Cl)c2)C(C)C)S(=O)(=O)c2ccccc21 | 8.39% |
| CCOC(=O)c1nn(-c2ccc(C)cc2)c2nc(Nc3ccccc3)cc(=O)n12 | 25.2% |
| Cc1ccc(C(=O)N/C(=C/c2ccco2)C(=O)NCCc2c[nH]c3ccccc23)cc1C | 7.17% |
| Cc1cc(COc2ccccc2)oc1C(=O)O | 14.4% |
| CS(=O)(=O)N(CCc1ccccc1)CC(=O)NCc1ccc2c(c1)OCO2 | -6.84% |
| CC(C)(C)c1ccc(C(=O)NCc2nnc(SCC(=O)NCC3CCCO3)o2)cc1 (stereo not shown) | 12.8% |
| O=C(N/N=C/c1ccccc1Cl)c1cccc(F)c1 | 1.86% |
| COc1ccc(-c2nc(N)nc(C)c2Oc2ccccc2Br)c(O)c1 | -0.597% |
| N/C(=N\OC(=O)c1ccc2ccccc2c1)c1cccc([N+](=O)[O-])c1 | 7.52% |
| C=CCSC(=S)Nc1c(C)n(C)n(-c2ccccc2)c1=O | 24.5% |
| CC(=O)Nc1ccc(S(=O)(=O)NC2CC(=O)N(c3ccc(C)c(C)c3)C2)cc1 (stereo not shown) | 21.6% |

Reference: paper PMC4336329 (PLoS ONE, 2015)
